Measured values taken from PMC4336329 (PLoS ONE, 2015).
About 2,200 (0.71%) of roughly 310,000 compounds showed an effect of 50% or more. The effect is printed as a negative number. The list shows a part of the results.

biological target: human ether-à-go-go-related gene (hERG) potassium channel (human, UniProt Q12809); assay: primary screen, population patch clamp on CHO cells stably expressing hERG
Sequence (Q12809 whole entry, looked up): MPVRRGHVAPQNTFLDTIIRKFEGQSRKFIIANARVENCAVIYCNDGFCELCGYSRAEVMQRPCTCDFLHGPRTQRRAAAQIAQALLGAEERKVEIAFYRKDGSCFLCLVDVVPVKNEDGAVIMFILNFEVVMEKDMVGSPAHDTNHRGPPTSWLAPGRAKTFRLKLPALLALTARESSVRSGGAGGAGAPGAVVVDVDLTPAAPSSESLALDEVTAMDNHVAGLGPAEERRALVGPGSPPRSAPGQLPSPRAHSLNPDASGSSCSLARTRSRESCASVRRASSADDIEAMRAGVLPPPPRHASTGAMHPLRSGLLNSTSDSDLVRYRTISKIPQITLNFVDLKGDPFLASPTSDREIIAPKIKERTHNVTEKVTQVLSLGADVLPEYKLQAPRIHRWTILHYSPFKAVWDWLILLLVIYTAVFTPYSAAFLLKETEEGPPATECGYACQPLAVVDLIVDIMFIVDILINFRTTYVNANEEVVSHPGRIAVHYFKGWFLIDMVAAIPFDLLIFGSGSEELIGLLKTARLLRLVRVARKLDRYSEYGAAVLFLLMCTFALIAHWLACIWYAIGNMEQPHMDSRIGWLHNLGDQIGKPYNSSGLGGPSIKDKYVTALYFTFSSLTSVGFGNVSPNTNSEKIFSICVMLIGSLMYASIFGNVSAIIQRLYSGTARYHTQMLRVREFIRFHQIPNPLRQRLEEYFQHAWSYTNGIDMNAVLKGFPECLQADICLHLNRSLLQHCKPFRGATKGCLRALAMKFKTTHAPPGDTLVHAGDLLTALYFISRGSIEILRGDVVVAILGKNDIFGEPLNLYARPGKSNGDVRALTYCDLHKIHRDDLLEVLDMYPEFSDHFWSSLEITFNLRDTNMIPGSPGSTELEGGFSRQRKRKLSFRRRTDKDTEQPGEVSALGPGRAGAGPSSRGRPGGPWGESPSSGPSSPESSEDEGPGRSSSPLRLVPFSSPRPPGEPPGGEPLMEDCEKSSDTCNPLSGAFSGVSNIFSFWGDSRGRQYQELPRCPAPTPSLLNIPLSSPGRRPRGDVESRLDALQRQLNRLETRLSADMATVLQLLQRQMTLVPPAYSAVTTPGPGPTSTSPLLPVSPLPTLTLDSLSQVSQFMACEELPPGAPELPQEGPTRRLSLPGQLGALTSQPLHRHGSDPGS

SMILES	hERG current change (%, negative = inhibition) at 1uM
O=C(c1ccc(-n2cncn2)c([N+](=O)[O-])c1)N1CCN(c2cccc(Cl)c2)CC1	-15.4%
O=C(CN1CCN(CC(=O)Nc2cccc(F)c2)CC1)NCC1(N2CCOCC2)CCCCC1	0.0709%
COc1cccc2cc(C(=O)c3ccccc3)oc12	7.53%
CCC(C)NC(=S)Nc1ccc(F)cc1 (centres unmarked)	8.14%
CCN(CC)S(=O)(=O)c1ccc2c(c1)nc(CCC(=O)Nc1ccc(N3CCOCC3)cc1)n2C	15.6%
COc1cccc(CN2CCN(C3CCOCC3)CC2CCO)c1 (centres unmarked)	10.9%
CN1C(=S)SC(/[N+]([O-])=C\c2ccc(Cl)cc2)C1(C)C (centres unmarked)	9.19%
COc1ccc(C(=S)N2CCOCC2)cc1OC(=O)c1ccccc1	19.3%
COC(=O)C1=C(c2ccc(F)cc2OCc2ccccc2)C[C@@H]2CC[C@H]1N2C(=O)NCc1ccc([N+](=O)[O-])cc1	0.735%
COc1ccc(CN(C(=S)Nc2ccccc2)C2CC(=O)N(c3ccc(Cl)cc3)C2=O)cc1 (centres unmarked)	2.41%
CCn1cnc2cc(NC(=O)c3cccs3)ccc21	8.67%
CC1(c2ccc(Cl)cc2)NC(=O)N(CC(=O)N2CCc3ccccc3C2)C1=O (centres unmarked)	-0.91%
Cc1ccc(-c2c(C(=O)O)c3ccccc3[nH]c2=O)cc1	10.1%
CN(CC(=O)Nc1ccc(F)cc1)C(=O)C1CCCC1	7.47%
O=C(Nc1ccccc1N1CCOCC1)c1ccco1	13.5%
COc1ccc(Cc2nnc(NS(=O)(=O)c3ccc(NC(C)=O)cc3)s2)cc1	14.5%
O=C(Nc1nc(-c2ccc(F)c(F)c2)cs1)c1cnccn1	5.09%
CC1(C)Cc2ccccc2C(N/N=C/c2ccc([N+](=O)[O-])cc2)=N1	12%
O=C1OC(/C=C/c2ccc(Cl)cc2)=NC/1=C/c1ccco1	5.9%
O=C(CCl)Nc1ccccc1C(=O)c1ccccc1	9.75%
CC(Oc1ccc2c(-c3ccccc3)cc(=O)oc2c1)C(=O)NCCN1CCOCC1 (centres unmarked)	4.39%
O=C(CC12CC3CC(CC(C3)C1)C2)NCC(=O)N1CCc2ccccc2C1	2.11%

SMILES	hERG current change (%, negative = inhibition) at 1uM
CCO[C@@H]1OC(C(=O)N2CCN(Cc3ccccc3)CC2)=C[C@H](C2CC2)[C@H]1CCCO	2.43%
Nc1nc(N)c(N=Nc2ccc(S(N)(=O)=O)cc2)c(=O)[nH]1	13.1%
CC(/C=N\NC(=O)c1ccc(C)nc1)=C\c1ccccc1	19.6%
O=C(NC(=S)Nc1ccccc1N1CCCC1)c1ccc([N+](=O)[O-])cc1	15.4%
COc1ccc(CSc2nnc(Cc3sc(-c4ccccc4)nc3-c3ccccc3)o2)cc1	13.1%
CCOC(=O)c1sc(N2C(=O)C(O)=C(C(=O)c3ccc(C)o3)C2c2cccc([N+](=O)[O-])c2)nc1C (centres unmarked)	14.6%
COc1ccc(N2CCN(C(=O)c3ccc4c(c3)[nH]c(=S)n3c5ccccc5nc43)CC2)cc1	10.2%
COc1ccc(C2C(C(=O)N3CCN(c4ccccn4)CC3)CCC(=O)N2c2cc(OC)c(OC)c(OC)c2)cc1 (centres unmarked)	10%
Cc1[nH]nc(SCC(=O)NCc2ccc(Cl)cc2)c1[N+](=O)[O-]	12%
CCOC(=O)c1ccc(N2C(=O)CC(Nc3ccc(O)cc3)C2=O)cc1 (centres unmarked)	10.9%
COc1ccc(OC)c(S(=O)(=O)Nc2c(F)cccc2F)c1	17.7%
Cl.Clc1cccc(Cl)c1CNC1CCCC1	9.78%
O=C(Nc1cc(F)ccc1F)c1cccc(-n2cnnn2)c1	8.01%
CC(C)(C)c1ccc(OCC(=O)N/N=C/c2ccc(N3CCOCC3)cc2)cc1	-6.06%
COc1ccc(NS(=O)(=O)c2cccc(C(=O)NNC(=O)c3ccc(NC(C)=O)cc3)c2)cc1	-11.6%
CSc1ccc(/C=C2\C(=N)N3N=C(CC(=O)N4CCCCC4)SC3=NC2=O)cc1	19%
CCOc1ccccc1OCCCC(=O)NNC(=O)c1cc(C)oc1C	12.2%
CCCCCCC1/C(=N/O)CCC1C(=O)OC (centres unmarked)	9.46%
Cc1occc1C(=O)NNC(=O)C1CCCCC1	9.28%
Cc1cccc(OCC(=O)OCC(=O)N(CC(C)C)c2c(N)n(Cc3ccccc3)c(=O)[nH]c2=O)c1C	1.56%
C=C(C)COc1ccc(-c2nc(N)ncc2-c2ccc(Cl)cc2)c(O)c1	2.87%
CC(C)C[C@H](N)C(=O)N1CCC(C(=O)N[C@H](C(=O)NC(C)c2ccccc2)C(C)C)CC1 (some centres unmarked)	14.8%

SMILES	hERG current change (%, negative = inhibition) at 1uM
CC1Nc2ncnc(N3CCc4ccccc4C3)c2N(Cc2ccc(Cl)cc2)C1=O.O=C(O)C(F)(F)F (centres unmarked)	19.4%
CN(CCn1ccnc1)C(=O)CC1C(=O)NCCN1Cc1ccccc1C(F)(F)F (centres unmarked)	9.63%
COc1ccccc1/C=N/NC(=O)CNC(=O)c1ccc(S(=O)(=O)N(C)C)cc1	7.11%
O=[N+]([O-])c1ccccc1S(=O)(=O)Nc1cccnc1	26.7%
Cc1oc(/N=C/c2cccc3ccccc23)c(C#N)c1C	4.48%
COC(=O)c1cc(OC)c(OC)cc1NC(=O)c1ccc(Br)o1	10.3%
CC(Oc1ccccc1)C(=O)Nc1cccc([N+](=O)[O-])c1 (centres unmarked)	-6.44%
CCCCCCOC(=O)C(C#N)c1nc2ccccc2nc1N1CCN(C)CC1 (centres unmarked)	-2.57%
C/C(=N\NC(=S)NCc1ccccc1)c1cccc(Br)c1	13.8%
O=C(CCCCn1c(=O)c2ccccc2n(Cc2ccccc2F)c1=O)NC1CCN(Cc2ccccc2)CC1	8.82%
Cc1cc(C(=O)NCCCN2CCCC2=O)no1	22.7%
CCCCn1c(-c2ccccc2C)nc2cc3[nH]c(=O)c(C(C)C)nc3cc21	2.47%
CCOC(=O)c1cnn2c1[nH]c(=O)c1ccccc12	15.4%
Cc1ccc(S(=O)(=O)N2CCCOC2CNC(=O)C(=O)NCc2ccccn2)cc1 (centres unmarked)	13.5%
NC(=O)NC(=O)COC(=O)c1sc2ccccc2c1Cl	3.3%
Cc1ccc(CCNC(=O)CN(C)S(=O)(=O)c2ccc3c(c2)n(C)c(=O)c(=O)n3C)cc1	-4.05%
O=C(NCC1CCCO1)c1cccc(-n2cnnn2)c1 (centres unmarked)	13.9%
COc1ccc(NC(=O)Nc2nc3ccccc3s2)cc1	8.88%
CC(C)OC(=O)/C(C#N)=C/c1ccc(-c2ccc(SC(F)F)cc2)o1	8.55%
O=C(c1cc(-c2cccc(Cl)c2)nc2ccccc12)N1CCCC1	3.8%
Cc1cc(SCC(=O)NC2CCCCC2)nc2ccccc12	11%
NC1CCCCC1N=Cc1c(O)n(Cc2ccc(F)cc2)c(=O)[nH]c1=O (centres unmarked)	14.5%

SMILES	hERG current change (%, negative = inhibition) at 1uM
COc1ccc(/C=C/C(=O)N2CCN(S(=O)(=O)c3ccccc3)CC2)cc1OC	2.76%
Cc1ccc(NC(=O)c2ccccc2F)cc1S(=O)(=O)N1CCCCCC1	17.5%
CC(OC(=O)/C=C/c1ccccc1)C(=O)NC1CCCCC1C (centres unmarked)	10.8%
COCCNS(=O)(=O)c1cc2[nH]c3c(c2cc1C)C(=O)CC(C)(C)C3	9.23%
Cc1ccc(O)c(NC(=O)CSc2n[nH]c(C)c2[N+](=O)[O-])c1	18.2%
C=CCN1c2ccccc2[C@]23C[C@@H](C(=O)OC)N(C(=O)CC(C)C)C2=NC(C(=O)OC)=C(C(=O)OC)[C@H]13	2.72%
O=c1c2c3c(sc2ncn1Cc1ccc(F)cc1)CCC3	4.34%
CCOC(=O)N1CCN(C(=O)CCC(=O)c2ccc(OCC)cc2)CC1	14.2%
O=C(CSc1nnc(-c2cccnc2)o1)Nc1ccccc1F	2.7%
CCCC(=O)NCCc1nc2ccccc2n1CC(=O)c1ccccc1	-0.165%
Cc1ccc(S(=O)(=O)c2c(C)cc(C)nc2Cl)cc1	9.77%
Cc1cc(NC(=O)CSCC(=O)Nc2ccccc2Oc2ccccc2)no1	10.3%
COc1ccccc1CCc1nnc(N)s1	20.5%
Cc1cccc(S(=O)(=O)c2c(N)n(/N=C/c3cccnc3)c3nc4ccccc4nc23)c1	0.902%
CCNc1ccc(S(=O)(=O)N(C)C)cc1[N+](=O)[O-]	6.6%
N/C(=N\[N+](=O)[O-])N1CCN(C(=O)Oc2ccccc2)CC1	11.4%
CN(Cc1ccccc1)C(=O)C1CCN(S(=O)(=O)c2cccc3nsnc23)CC1	7.87%
c1ccc(C2[C@H]3CN(CC4CCCCC4)[C@H](c4ccccc4)C34CC2(c2cccnc2)C4)cc1 (some centres unmarked)	0.067%
COc1ccc(/C=N/Nc2cc(N3CCCC3)nc(N3CCCC3)n2)cc1	6.91%
O=[N+]([O-])c1ccc(-n2ccnc2)cc1	14.2%
